Several values for one entry are separate records, joined by “and”; a condition that tells them apart may be missing. Equal values may be shown once. In all, about 350,000 compounds went through this assay and about 260 (0.074%) were called active. The inconclusive results got no clear call from the source; some entries with a clear call stand among them for comparison. Calls come from the whole dose curve; as a rule, active = well fitted inhibition curve with a large enough effect; inconclusive = small, poorly fitted or top-dose-only effect; inactive = no such curve, though single readings can be large or run the other way. A potency beside an inconclusive call is a rough fit, not a confirmed value.
Each compound was assayed against Ferritin light chain (Equus caballus) (UniProt P02791) (assay: qHTS Assay for Identification of Novel General Anesthetics). Details: apoferritin/1-aminoanthracene competitive binding, fluorescence; activity change, negative = displacement: at 77.5 µM (top of the series).
How it was run: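 Apoferritin-based anesthetic binding model; compound displacement of fluorescent 1-AMA measured as endpoint fluorescence after 10 minutes at room temperature, scaled to free-ligand and complex controls.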
% is set by controls: 0 for no effect and ±100 for the full control effect; potency is the fitted concentration of half-maximal effect; tags give direction and shape of the fitted curve.
Note: nearly all actives have a fitted effect of over 20% in size.

Sequence of UniProt P02791 (P02791 whole entry, looked up): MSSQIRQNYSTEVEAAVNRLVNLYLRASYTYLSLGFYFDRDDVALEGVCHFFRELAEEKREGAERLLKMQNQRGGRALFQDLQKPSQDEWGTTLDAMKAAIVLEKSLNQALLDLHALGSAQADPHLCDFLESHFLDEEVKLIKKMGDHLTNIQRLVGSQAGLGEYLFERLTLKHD

SMILES	Potency	activity change, negative = displacement
O=C(/C(N=Nc1cccc([N+](=O)[O-])c1)=C(/O)c1ccc(Br)cc1)C(F)(F)F	inconclusive: 44.7 µM [inhibitor, single point]	–
O=C(CSc1nnc(CNC(=O)c2cccs2)o1)c1ccccc1	inconclusive: 39.8 µM [inhibitor, single point]	–
Cc1ccc(S(=O)(=O)c2nnn3c2nc(NCc2ccc(F)cc2)c2sccc23)cc1	inconclusive: 3.98 µM [inhibitor, full curve]	–
O=C(CSCC(=O)Nc1ccccc1)N/N=C/c1c(O)ccc2ccccc12	inconclusive: 8.91 µM [inhibitor, full curve]	–
O=C(CSc1ccc2ccccc2n1)c1ccc2c(c1)OCO2	inconclusive: 12.6 µM [inhibitor, partial curve]	–
Cc1ccc(-c2ccc(/C=N/N3C(=O)C4C5C=CC(C6CC56)C4C3=O)o2)c([N+](=O)[O-])c1 (centres undefined)	inconclusive: 20 µM [inhibitor, partial curve]	–
O=C(COc1ccc(Br)cc1)OCc1nnc(-c2ccccc2)o1	inconclusive: 15.8 µM [inhibitor, partial curve]	–
CCN(C(=O)COc1ccccc1)C1CCCCC1	inconclusive: 7.94 µM [inhibitor, partial curve]	–
CC1(C)Cc2ccccc2/C(=C/C(=O)c2ccccc2)N1	inconclusive: 31.6 µM [inhibitor, single point]	–
CCN1CCN(CCCN(Cc2ccco2)C(=S)Nc2cc(Cl)ccc2C)CC1	–	inactive: -9.27%
COC(=O)c1ccc(OCC(O)Cn2nnc3ccccc32)cc1 (centres undefined)	–	inactive: -16.3%
O=C(COC(=O)CCCSc1nc2ccccc2[nH]1)NC(=O)NC1CCCC1	inconclusive: 35.5 µM [inhibitor, partial curve]	–
COC(=O)c1cn(NC(=O)c2cc(OC)cc(OC)c2)c(=O)c2ccccc12	inconclusive: 15.8 µM [inhibitor, partial curve]	–
COc1ccc(-c2nc(C)c(CCNC(=O)C(=O)Nc3cccc(F)c3)s2)cc1OC	inconclusive: 28.2 µM [inhibitor, partial curve]	–
O=C(OCC(=O)N1CCN(C(=O)c2ccco2)CC1)c1cc(S(=O)(=O)Nc2ccc(Cl)cc2)ccc1O	inconclusive: 14.1 µM [inhibitor, partial curve]	–
O=C(Nc1cccc(Cl)c1)c1ccc2c(=O)n3c(nc2c1)CCCCC3	inconclusive: 17.8 µM [inhibitor, partial curve]	–
COc1cccc(/C=c2\s/c(=C\C(=O)C(C)(C)C)[nH]c2=O)c1	inconclusive: 44.7 µM [inhibitor, single point]	–
Cc1ncc(CSCC(=O)Nc2cc(C(F)(F)F)ccc2Cl)c(CO)c1O	–	inactive: 7.39%
CCOC(=O)CCn1nc(-c2ccc(C)cc2)c2ccccc2c1=O	inconclusive: 31.6 µM [inhibitor, partial curve] and inconclusive: 39.8 µM [inhibitor, partial curve]	–
COc1ccc(NCc2ccsc2)cc1	inconclusive: 25.1 µM [inhibitor, partial curve]	–
CCCCN1C(=O)/C(=C/C=C2\SCCN2C)SC1=S	inconclusive: 11.2 µM [inhibitor, partial curve]	–
CCOc1ccc(C(Nc2ccc(C)cc2)P2(=O)OCCC(C)O2)cc1 (centres undefined)	inconclusive: 39.8 µM [inhibitor, partial curve]	–

SMILES	Potency	activity change, negative = displacement
Cn1c(N)c(C(=O)COC(=O)C2CCC(C(C)(C)C)CC2)c(=O)n(C)c1=O (centres undefined)	inconclusive: 25.1 µM [inhibitor, partial curve]	–
Cn1cc(Cl)c(C(=O)OCC(=O)Nc2ccccc2)n1	inconclusive: 28.2 µM [inhibitor, partial curve]	–
COc1ccc(C)cc1NC(=O)C(=O)NCC(c1cccnc1)N1CCc2ccccc21 (centres undefined)	–	inactive: -6.26%
COc1cc(NC(C)C(=O)N2CC(C)OC(C)C2)cc(OC)c1 (centres undefined)	inconclusive: 39.8 µM [inhibitor, partial curve]	–
C/C(=N\NC(=O)c1ccncc1)c1ccc(NC(=O)c2ccc(Cl)cc2)cc1	–	inactive: -3.63%
Cc1ccc(-n2c3c(cc(C(=O)Nc4ccccc4C(N)=O)c2=O)C(=O)CC(C)(C)C3)cc1	inconclusive: 17.8 µM [inhibitor, partial curve]	–
CCn1cc(C(=O)NC(C)CCc2ccccc2)c(=O)c2cc(S(=O)(=O)N(C)C)ccc21 (centres undefined)	inconclusive: 56.2 µM [inhibitor, single point]	–
O=[N+]([O-])c1cccc(-c2noc(-c3ccco3)n2)c1	–	inactive: 3.4%
CC(C)(C)C(=O)CSc1nccc(=O)[nH]1	inconclusive: 31.6 µM [inhibitor, partial curve]	–
O=C(NC1CCCCC1)C(c1ccc(Cl)cc1)N(C(=O)c1cnccn1)c1ccc2c(c1)OCO2 (centres undefined)	–	inactive: -1.93%
COc1ccc(NC(=O)/C(C#N)=C\c2ccc(-c3cccc(C(=O)O)c3C)o2)cc1	inconclusive: 56.2 µM [inhibitor, single point]	–
COc1ccc(NC2CCCN(C(=O)c3cccc(N(C)C)c3)C2)cc1 (centres undefined)	inconclusive: 15.8 µM [inhibitor, partial curve]	–
O=C(NCCCN1CCOCC1)c1cc2ccccc2oc1=O	–	inactive: -7.34%
Cc1ccc2c(c1)c(C)c(C)n2CC(O)Cn1nc(C)cc1C (centres undefined)	inconclusive: 56.2 µM [inhibitor, single point]	–
Cc1cccc(OCC2=N/C(=C\N(C)C)C(=O)O2)c1	inconclusive: 28.2 µM [inhibitor, partial curve]	–
Cc1c(NC(=O)c2cnn3c(C(F)(F)F)cc(-c4ccco4)nc23)c(=O)n(-c2ccccc2)n1C	–	inactive: -10.2%
COCCc1nn2c(=O)cc(COC(=O)C(c3ccccc3)c3ccccc3)nc2s1	inconclusive: 17.8 µM [inhibitor, partial curve]	–
CCOC(=O)C(C)Sc1nc(C2CC2)cc(C(F)(F)F)c1C#N (centres undefined)	inconclusive: 31.6 µM [inhibitor, partial curve]	–
CCCCc1ccc(NC(=S)Nc2ccc(Cl)c(S(=O)(=O)N(C)C)c2)cc1	inconclusive: 14.1 µM [inhibitor, partial curve]	–
O=C(O)Cc1sc(Nc2ccccc2)nc1-c1ccc(Cl)cc1	inconclusive: 28.2 µM [inhibitor, single point]	–
Nc1c(-c2ccccc2Cl)cnn1-c1cccc([N+](=O)[O-])c1	inconclusive: 35.5 µM [inhibitor, partial curve]	–
Cc1cccc(C)c1N1C(=O)[C@@H]2C(c3ccccc3Cl)=NO[C@@H]2C1=O	inconclusive: 56.2 µM [inhibitor, single point]	–

SMILES	Potency	activity change, negative = displacement
CC1CCc2nc(NC(=O)Nc3ccc4c(c3)OCO4)sc2C1 (centres undefined)	inconclusive: 50.1 µM [inhibitor, single point]	–
Cc1ccc(-n2c(-c3ccco3)nc3nc4ccccc4nc32)cc1F	–	inactive: -0.847%
O=C(CNC(=O)c1cccc(F)c1)N/N=C/C=C/c1ccccc1	inconclusive: 7.94 µM [inhibitor, partial curve]	–
COc1cccc(Cn2nnc(C(=O)NCc3ccc(F)cc3)c2N)c1	inconclusive: 5.62 µM [inhibitor, partial curve]	–
CC1(C)Cc2c(C#N)c(SCCO)nc(N3CCOCC3)c2CO1	–	inactive: -10.2%
O=S(=O)(c1ccc(Cl)cc1)N1CCCC1c1nc(-c2ccc(Cl)cc2)no1 (centres undefined)	–	inactive: 33.6%
C=CCNC(=O)/C(C#N)=C/c1c(C)nn(-c2ccccc2)c1Cl	inconclusive: 39.8 µM [inhibitor, partial curve]	–
Cc1ccc(-c2cc(C(=O)Nc3ccc(SC(F)F)cc3)no2)cc1F	inconclusive: 11.2 µM [inhibitor, partial curve]	–
O=C(Nc1ccc(Cl)c(Cl)c1)N(Cc1cccnc1)Cc1ccco1	inconclusive: 31.6 µM [inhibitor, partial curve]	–
O=C1CCC(=O)N1c1ccc(NCc2ccccc2Cl)c([N+](=O)[O-])c1	inconclusive: 50.1 µM [inhibitor, single point]	–
COc1ccccc1CNC(=O)CSc1ccc(-c2cccc([N+](=O)[O-])c2)nn1	inconclusive: 25.1 µM [inhibitor, partial curve]	–
CCNS(=O)(=O)c1ccc(NC(=O)CSc2nc(-c3ccco3)cc(C(F)(F)F)n2)cc1	inconclusive: 31.6 µM [inhibitor, partial curve]	–
CCCOc1ccc(NC(=O)CC2C(=O)N(c3ccccc3)C(=O)N2Cc2ccco2)cc1 (centres undefined)	inconclusive: 5.62 µM [inhibitor, full curve, poor fit]	–
Cc1cccc(NC(=S)c2nc3ccccc3s2)c1	inconclusive: 22.4 µM [inhibitor, partial curve]	–
CCCCCOC(=O)C1=C(C)NC(=O)NC1c1ccc2c(c1)OCO2 (centres undefined)	inconclusive: 39.8 µM [inhibitor, partial curve]	–
C=C1CC2C(CCC3(C)C2CCC3(O)C(C)=O)C2(C)CCC(=O)C=C12 (centres undefined)	–	inactive: -8.63%
Cc1ccc(C(=O)COC(=O)c2cnccn2)cc1C	inconclusive: 35.5 µM [inhibitor, partial curve]	–
Nc1c(C(=O)Nc2ccccc2)sc2nc(-c3cccnc3)ccc12	–	inactive: -12.1%
N=C1/C(=C\c2ccc(OCc3ccccc3)cc2)C(=O)N=C2SC(N3CCCC3)=NN12	inconclusive: 3.98 µM [inhibitor, full curve]	–
Cc1ccc(NC(=O)C2CCCN(S(=O)(=O)c3ccc4[nH]c(=O)ccc4c3)C2)cc1Cl (centres undefined)	inconclusive: 56.2 µM [inhibitor, single point]	–

Source: PubChem BioAssay AID485281 (National Center for Advancing Translational Sciences (NCATS), 2010)
